Laboratory results: a compilation of properties of binary mixtures (doi:10.1016/j.jct.2017.08.033)
The densities may have been worked out from excess volumes.

Assay: xn = mol fraction of the nth substance listed
Conditions: 101 kPa

O=S(=O)([N-]S(=O)(=O)C(F)(F)F)C(F)(F)F.[Li+] + CC[n+]1ccn(C)c1.O=S(=O)([N-]S(=O)(=O)C(F)(F)F)C(F)(F)F
mass density [kg/m3]
Conditions	298.15 K	313.15 K	328.15 K	343.15 K	358.15 K
x2 = 0.6	1643	1626	1615	1602	1587
x2 = 0.7	1607	1590	1580	1567	1552
x2 = 0.8	–	1558	1548	1535	–
x2 = 0.9	1542	1526	1516	1504	1490
x2 = 0.95	1530	1514	1504	1492	1478

CC[n+]1ccn(C)c1.O=S(=O)([N-]S(=O)(=O)C(F)(F)F)C(F)(F)F + O=S(=O)([N-]S(=O)(=O)C(F)(F)F)C(F)(F)F.[Li+]
x1 = 1
Conditions	mass density [kg/m3]
298.15 K	1516
328.15 K	1488
358.15 K	1460
